{"source": "the supplement of paper PMC10338343", "note": "± gives the standard deviation. Over roughly 6,600 sequences, “pre-steady-state target cleavage rate” has its median near 0.07; the highest 2% begin near 0.72. The list shows a part of the results, in another mix than the full data."}
{"system": "MIWI (PIWIL1) piRISC loaded with Kctd7 piRNA (30 nt)", "experiment": "pre-steady-state target cleavage rate (min^-1); MIWI and MILI are mouse PIWI proteins and EfPiwi is from a freshwater sponge; tags in brackets are library labels; higher = faster piRNA-guided slicing of the target", "conditions": "guide: Kctd7 piRNA 5'p-UGUUAAUCUCUCAGAGAAGGUGACAGUGAU; auxiliary factor: 500 nM mouse GTSF1", "description": "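Cleave-'n-Seq: a library of target RNAs (target site embedded in constant flanks, ACAGCATTCCGCGTTAGTGATATCCG... 5' flank; DNA-blocked outside the site) at 0.1 nM was incubated with 1 nM active mouse MILI or MIWI piRISC (synthetic 5'-monophosphorylated piRNA guide) with or without 500 nM mouse GTSF1 at 33 °C for 1 min to 16 h. Uncleaved targets were sequenced and normalised to non-target controls, and the pooled three trials were fitted to a burst-and-steady-state model to give the pre-steady-state cleavage rate (min^-1; k3 is constrained to at most 1e-4). Sequence is the target site only; target names encode pairing extent (gX:gY) and contiguous / 1-mismatch / 2-mismatch / bulge geometry. Fits with R² ≤ 0 are excluded.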"}
{"sequence": "UAGACAGUCACCUUCUCUGAGAGAUUUACA", "pre-steady-state target cleavage rate": "0.36 ± 0.046"}
{"sequence": "UAGUGACACACCUUUCUGAGAGAUUAACA", "pre-steady-state target cleavage rate": "0.0293 ± 0.0078"}
{"sequence": "UUCACUGUCACCUUCCUCUGAGAGAUUAACA", "pre-steady-state target cleavage rate": "0.538 ± 0.029"}
{"sequence": "AUCACUGUGACCUUCUCUCAGAGAUUAACA", "pre-steady-state target cleavage rate": "0.11 ± 0.01"}
{"sequence": "UACACUGUCUGCUUCUCUGAGAGAUUAAGA", "pre-steady-state target cleavage rate": "0.0888 ± 0.015"}
{"sequence": "AACACUGUCACCUUCUCUGAGAGAUUUUGA", "pre-steady-state target cleavage rate": "0.0856 ± 0.021"}
{"sequence": "UAGAGAGUCACCUUCUCUGAGAGAUUAAGA", "pre-steady-state target cleavage rate": "0.244 ± 0.047"}
{"sequence": "UAGUGUGUCACCUUCUCUGUGAGUUUAACA", "pre-steady-state target cleavage rate": "0.108 ± 0.015"}
{"sequence": "UUCACUGACACCUACUCUGAGAGAUUAACA", "pre-steady-state target cleavage rate": "0.459 ± 0.043"}
{"sequence": "UAGUGAGUCACCUUCACUGACAGAUUAACA", "pre-steady-state target cleavage rate": "0.188 ± 0.02"}
{"sequence": "UAGUGACUCACGCUUCUCUGAGAGAUUAACA", "pre-steady-state target cleavage rate": "0.178 ± 0.02"}
{"sequence": "UAGUGACUCACCUUCUGUGAGAGAAUAACA", "pre-steady-state target cleavage rate": "0.0473 ± 0.0072"}
{"sequence": "UAGUGAGUCACGAUCUCUGAGAGAUUAACA", "pre-steady-state target cleavage rate": "0.457 ± 0.037"}
{"sequence": "UAGUCUGUCACCUUCUCUGAGAGAUUUUGA", "pre-steady-state target cleavage rate": "0.0211 ± 0.0064"}
{"sequence": "UUCACUGUCACCUUCUCUCUGAGAUUUUGA", "pre-steady-state target cleavage rate": "0.00836 ± 0.0045"}
{"sequence": "UUCACUGUCACCAAGUCUGAGAGAUUUUGA", "pre-steady-state target cleavage rate": "0.0232 ± 0.01"}
{"sequence": "UAGUGACUCACCUUCUCUGAGAGAUUAUCA", "pre-steady-state target cleavage rate": "0.323 ± 0.057"}
{"sequence": "UAGACUGACACCUUCUCUCAGAGAUUAACA", "pre-steady-state target cleavage rate": "0.076 ± 0.0059"}
{"sequence": "UAGUGAGUCACCUUCUCUGAAAGAUUAACA", "pre-steady-state target cleavage rate": "0.572 ± 0.043"}
{"sequence": "AUCACUGUCACCUUCUGUGAGAGAUUAAGA", "pre-steady-state target cleavage rate": "0.0544 ± 0.015"}
{"sequence": "UAGACUGUCUGCUUCUCUGAGAGAUUAACA", "pre-steady-state target cleavage rate": "0.559 ± 0.038"}
{"sequence": "UAGUCUGUCACCUUCUCUGUGAGAUAAACA", "pre-steady-state target cleavage rate": "0.114 ± 0.012"}
{"sequence": "UAGACUGUCACCUUGUCUGAGAGAUUUACA", "pre-steady-state target cleavage rate": "0.659 ± 0.12"}
{"sequence": "UACACUGUGUCCUUCUCUGAGAGAUUAUGA", "pre-steady-state target cleavage rate": "0.0345 ± 0.0098"}
{"sequence": "UAGUCUGACACCUUCACUGAGAGAUUAACA", "pre-steady-state target cleavage rate": "0.385 ± 0.02"}
{"sequence": "AUCUGAGUCACCUUCUCUGAGAGAUUAAGA", "pre-steady-state target cleavage rate": "0.0948 ± 0.019"}
{"sequence": "UUCACUGACACCUUCUCUGAGAGAUAUUGA", "pre-steady-state target cleavage rate": "0.095 ± 0.024"}
{"sequence": "AUCACUGUCACCUUCUCUGAUAGAUUAACA", "pre-steady-state target cleavage rate": "0.657 ± 0.033"}
{"sequence": "UACACUGUCACCAACUCUGAGAGAUUAUGA", "pre-steady-state target cleavage rate": "0.00388 ± 0.0037"}
{"sequence": "AUCACUGUCACCUGCUCUGAGAGAUUAACA", "pre-steady-state target cleavage rate": "0.673 ± 0.026"}
{"sequence": "UACACUCUCACCUUCUCUGAGAGAUUUACA", "pre-steady-state target cleavage rate": "0.232 ± 0.038"}
{"sequence": "UAGUGACUCACCUUGUCUGAGAGAUUAUGA", "pre-steady-state target cleavage rate": "0.00687 ± 0.0034"}
{"sequence": "UAGUGUGUGACCUUCACUGAGAGAUUAACA", "pre-steady-state target cleavage rate": "0.282 ± 0.024"}
{"sequence": "AUCGACUGUCACCUUCUCUGAGAGAUUAACA", "pre-steady-state target cleavage rate": "0.821 ± 0.059"}
{"sequence": "UAGAGUGUCACGUUCUCUGAGAGAUUAACA", "pre-steady-state target cleavage rate": "0.668 ± 0.03"}
{"sequence": "UAGUGUGUCACCUUCUCUGUGAGAUUAUCA", "pre-steady-state target cleavage rate": "0.0599 ± 0.012"}
{"sequence": "UAGUGACAGAGCUUCUCUGAGAGAAUAACA", "pre-steady-state target cleavage rate": "0.00364 ± 0.0026"}
{"sequence": "AUCACUGACACCUUCUCUGAGUGAUUAACA", "pre-steady-state target cleavage rate": "0.0357 ± 0.0069"}
{"sequence": "AUCACUGUCACCUUGUCUGAGAGAUUAAGA", "pre-steady-state target cleavage rate": "0.61 ± 0.12"}
{"sequence": "UAGUCUGUCACGUUCUCUGAGAGAUUUACA", "pre-steady-state target cleavage rate": "0.187 ± 0.026"}
{"sequence": "UUCACUGUCACCUUCACUGAGAGAUUUUGA", "pre-steady-state target cleavage rate": "0.518 ± 0.13"}
{"sequence": "UUCACUGUCAGCUUCUCAGAGAGAUUAACA", "pre-steady-state target cleavage rate": "0.25 ± 0.015"}
{"sequence": "UAGUGACACACCUUCUCUGAGAGUUUUUGA", "pre-steady-state target cleavage rate": "0.00705 ± 0.0044"}
{"sequence": "UUCUCUGUCACCUUCUCAGAGAGAUUAACA", "pre-steady-state target cleavage rate": "0.135 ± 0.017"}
{"sequence": "UACACUGUCACCUUCUCUGAGACAUUUUGA", "pre-steady-state target cleavage rate": "0.00497 ± 0.0047"}
{"sequence": "UACACACACACCUUCUCUGAGAGAUAUUGA", "pre-steady-state target cleavage rate": "0.0739 ± 0.026"}
{"sequence": "UACACUGUCACCUAGUCUGAGAGAUUAACA", "pre-steady-state target cleavage rate": "0.499 ± 0.033"}
{"sequence": "UAGACUGUCACCUAGACUGAGAGAUUAACA", "pre-steady-state target cleavage rate": "0.0166 ± 0.0036"}
{"sequence": "UAGUGACAGUCCUUCUCUGUGAGAUUAAGA", "pre-steady-state target cleavage rate": "0.00358 ± 0.0027"}
{"sequence": "UACACUGUCACCUAGUCUGAGAGAUUUUGA", "pre-steady-state target cleavage rate": "0.0238 ± 0.01"}
{"sequence": "UACACUCAGACCUUCUCUGAGAGAUUAUGA", "pre-steady-state target cleavage rate": "0.0073 ± 0.0047"}
{"sequence": "UAGUGUGUCACCUUCUCCGAGAGAUUAACA", "pre-steady-state target cleavage rate": "0.546 ± 0.11"}
{"sequence": "AUCACUGUCACCUUCUCUGAGAGAAAAUGA", "pre-steady-state target cleavage rate": "0.0648 ± 0.022"}
{"sequence": "UAGUGACAGUGCUUCUCUGAGAGAUUAAUA", "pre-steady-state target cleavage rate": "0.0189 ± 0.004"}
{"sequence": "UACAGUGACACCUUCUCUGAGAGAUUAACA", "pre-steady-state target cleavage rate": "0.553 ± 0.025"}
{"sequence": "UUCACUGUCACCUUCACUGAGAGAUUAUGA", "pre-steady-state target cleavage rate": "0.146 ± 0.034"}
{"sequence": "UAGACUGUCACCUUCUGUGAGACAUUAACA", "pre-steady-state target cleavage rate": "0.221 ± 0.018"}
{"sequence": "UAGUGAGUCUCCUUCUCUCAGAGAUUAACA", "pre-steady-state target cleavage rate": "0.0603 ± 0.0063"}
{"sequence": "UAGUGACUCACCUUCUCUGAGAGACUUAACA", "pre-steady-state target cleavage rate": "0.175 ± 0.028"}
{"sequence": "UAGUGACACACCUUCUAUGAGAGAUUAACA", "pre-steady-state target cleavage rate": "0.0665 ± 0.011"}
{"sequence": "UUCACUGUCUCCUUCUCUGAGAGUUUAACA", "pre-steady-state target cleavage rate": "0.42 ± 0.061"}
{"sequence": "UUCACUGUCUGCUUCUCUGAGAGAUUAUGA", "pre-steady-state target cleavage rate": "0.0359 ± 0.0076"}
{"sequence": "UAGACUGUCACCUUCUCUGAGAGAAAAACA", "pre-steady-state target cleavage rate": "0.103 ± 0.019"}
{"sequence": "UAGUCUGACACCAUCUCUGAGAGAUUAACA", "pre-steady-state target cleavage rate": "0.411 ± 0.029"}
{"sequence": "UACACUGUCACCAUCUCAGAGAGAUUAACA", "pre-steady-state target cleavage rate": "0.119 ± 0.015"}
{"sequence": "AUCACUGUCACCUUCUCUGAGACAUUAACA", "pre-steady-state target cleavage rate": "0.149 ± 0.019"}
{"sequence": "UAGUCUGUCACCUUCCUGAGAGAUUAACA", "pre-steady-state target cleavage rate": "0.0876 ± 0.021"}
{"sequence": "UAGUGACAGUGGAAGAGAGAGAGUAAAACA", "pre-steady-state target cleavage rate": "< 0.0001"}
{"sequence": "UUCACUGUCACCUUCUCUGAGAGAUAUACA", "pre-steady-state target cleavage rate": "0.218 ± 0.028"}
{"sequence": "UUCACUGUGACCUUGUCUGAGAGAUUAACA", "pre-steady-state target cleavage rate": "0.133 ± 0.021"}
{"sequence": "AUCACUGUCACCUUCUCUGACUCAUUAACA", "pre-steady-state target cleavage rate": "0.00534 ± 0.0029"}
{"sequence": "UAGUGACAGACGUUCACUGAGAGAUUAACA", "pre-steady-state target cleavage rate": "0.00384 ± 0.0037"}
{"sequence": "UAGUGACAGUCCUUCUCUGUGAGAUAAACA", "pre-steady-state target cleavage rate": "0.00652 ± 0.0025"}
